Source: paper PMC4336329 (PLoS ONE, 2015)
The campaign covered roughly 310,000 compounds. About 2,200 (0.71%) showed an effect of 50% or more. Effects have a minus sign here. The list shows a part of the results.

target: human ether-à-go-go-related gene (hERG) potassium channel (human, UniProt Q12809); assay: primary screen, population patch clamp on CHO cells stably expressing hERG
Sequence (Q12809 whole entry, looked up): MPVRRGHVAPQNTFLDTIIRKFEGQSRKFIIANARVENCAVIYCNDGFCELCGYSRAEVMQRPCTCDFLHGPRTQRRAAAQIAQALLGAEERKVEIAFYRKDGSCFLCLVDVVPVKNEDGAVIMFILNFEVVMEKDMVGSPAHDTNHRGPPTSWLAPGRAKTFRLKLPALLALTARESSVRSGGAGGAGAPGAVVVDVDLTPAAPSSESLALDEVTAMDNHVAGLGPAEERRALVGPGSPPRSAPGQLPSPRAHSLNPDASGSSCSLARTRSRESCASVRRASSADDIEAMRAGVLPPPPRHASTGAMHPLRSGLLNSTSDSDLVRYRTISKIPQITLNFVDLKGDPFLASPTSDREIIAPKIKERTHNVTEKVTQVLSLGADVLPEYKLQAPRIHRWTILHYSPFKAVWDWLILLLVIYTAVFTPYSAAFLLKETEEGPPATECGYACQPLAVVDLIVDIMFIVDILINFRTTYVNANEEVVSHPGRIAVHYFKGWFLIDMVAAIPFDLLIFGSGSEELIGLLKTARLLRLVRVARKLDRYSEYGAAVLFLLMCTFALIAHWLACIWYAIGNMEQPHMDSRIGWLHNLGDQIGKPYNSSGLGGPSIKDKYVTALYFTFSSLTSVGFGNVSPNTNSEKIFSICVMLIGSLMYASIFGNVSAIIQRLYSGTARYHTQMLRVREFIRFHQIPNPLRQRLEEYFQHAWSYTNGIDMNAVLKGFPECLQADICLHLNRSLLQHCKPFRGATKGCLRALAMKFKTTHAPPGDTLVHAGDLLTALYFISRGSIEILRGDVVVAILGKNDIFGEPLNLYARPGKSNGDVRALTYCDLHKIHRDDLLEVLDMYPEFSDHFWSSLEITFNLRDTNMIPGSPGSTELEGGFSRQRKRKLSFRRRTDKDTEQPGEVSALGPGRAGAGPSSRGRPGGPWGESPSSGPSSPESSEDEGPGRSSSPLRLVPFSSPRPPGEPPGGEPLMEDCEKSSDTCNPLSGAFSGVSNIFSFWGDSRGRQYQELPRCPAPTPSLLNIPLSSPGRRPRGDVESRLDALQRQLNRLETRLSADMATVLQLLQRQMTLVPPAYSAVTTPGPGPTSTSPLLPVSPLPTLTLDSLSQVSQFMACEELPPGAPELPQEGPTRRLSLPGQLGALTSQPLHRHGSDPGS

SMILES | hERG current change (%, negative = inhibition) at 1uM
CCC(=O)Nc1cccc(-c2cnc3ccccc3n2)c1 | -1.64%
O=C(Cn1cc2c(n1)CCCCC2)NCCN1CCOCC1 | 7.8%
CCCN1C(=O)C(O)(C2CC(=O)CC(C)(C)O2)c2ccccc21 (stereo not drawn) | 2.89%
COC(=O)Cc1ccc(NC(=S)NCc2ccc(F)cc2)cc1 | -19.8%
S=C(c1ccc(-c2ccccc2Cl)o1)N1CCOCC1 | 11.8%
CC1CC(C)CN(CCCOc2ccccc2[N+](=O)[O-])C1.O=C(O)C(=O)O (stereo not drawn) | 5.91%
Cc1c(C(=O)NCc2ccc3c(c2)OCO3)oc2ccc(S(=O)(=O)N3CCCC3)cc12 | 19.4%
O=C1C2CCCN2C(=O)N1CCN1CCN(c2ccccc2)CC1 (stereo not drawn) | -10.6%
COc1ccccc1CNC(=O)COC(=O)c1ccc(-n2cnnn2)cc1 | -2.42%
COc1ccc(OCC(=O)N(Cc2ccco2)C2CCS(=O)(=O)C2)cc1 (stereo not drawn) | 3.06%
Cc1ccc(OCc2nc3ccccc3n2C)cc1 | 2.93%
CCOC(=O)C1=C(C)NC(C)=C(C(=O)OCC)C1C(=O)OCC(=O)N1CCCCC1C (stereo not drawn) | 10.5%
NC(=O)NC(=O)C[n+]1cccc(/C=N/O)c1.[Cl-] | 9.69%
C=CCn1c(=N)c(C(=O)NCCCOC)cc2c(=O)n3cccc(C)c3nc21 | -64.2%
CCc1nn(CC(=O)NCCCN2CCc3ccccc3C2)c(=O)c2cc3sccc3n12 | -53.8%
COCCCN(C(C)=O)c1nc(-c2ccccc2)cs1 | -7.48%
Cc1c(NC(=O)C2CCN(S(=O)(=O)c3cccs3)CC2)c(=O)n(-c2ccccc2)n1C | 15.7%
COc1cccc(C(=O)O/N=C(\N)c2ccc(C)cc2)c1 | -8.69%
Cc1ccc(C)c(NC(=O)CCN2CC(C)OC(C)C2)c1 (stereo not drawn) | 3.16%
CC(=O)N1N=C(N)SC1(C)C | 9.04%
CCn1c(SCc2nc3cc(OC)c(OC)cc3c(=O)[nH]2)nnc1-c1ccncc1 | -1.74%
COCCNC(=O)c1c(N)sc2c1CCCC2 | -2.01%

SMILES | hERG current change (%, negative = inhibition) at 1uM
c1ccc(-n2ncc3c(NCC4CCCO4)ncnc32)cc1 (stereo not drawn) | -0.84%
Cc1ccc(C2(c3noc(CN(C)Cc4cccnc4)n3)CCCC2)cc1 | -16.5%
C=CC1=C2C=C(C3CC3)N(C3CC3)C=C2C(=O)C(C)(OC(=O)c2ccco2)C1=O (stereo not drawn) | 12%
NC(=O)NC(=O)CC1S/C(=N/N=C/c2ccccc2)NC1=O (stereo not drawn) | 13.7%
Cc1ccc(NC(=O)Cn2c(=O)n(CCC(=O)NC3CCN(Cc4ccccc4)CC3)c(=O)c3ccccc32)cc1 | 2.78%
COc1ccc(/C=N/NC(=O)c2cc3c(OC)ccc(OC)c3[nH]2)cc1O | 14.6%
CCc1ccc(NC(=O)c2ccc3c(=O)n4c(nc3c2)CCCCC4)cc1 | 3.08%
CCc1ccc(Nc2nnc(SCC(=O)N(C)CC(=O)Nc3ccccc3CC)s2)cc1 | 1.22%
CC(C)(C)NC(=O)CN(C(=O)CCN1CCCc2ccccc21)C(C)(C)C | 4.15%
CCCOc1nc2c(c(=O)n(C)c(=O)n2C)n1Cc1cccc2ccccc12 | 10.1%
C/C(=N\Nc1cccc2cccnc12)c1ccccc1O | 9.35%
Cn1ccnc1SCC(=O)NC1(C#N)CCCCC1 | 9.36%
CCN(CC)C(=O)Nc1c(C)n(C)n(-c2ccccc2)c1=O | 8.7%
Cn1c(=O)oc2cc(S(=O)(=O)N3CCC(C(=O)N4CCN(c5ccccc5)CC4)CC3)ccc21 | -4.39%
COC(=O)C1=C(C)N(c2ccc(OC)c(OC)c2)C(=O)/C1=C\c1cccs1 | 12.1%
Cc1c(-c2nc(N)nc(Nc3ccccc3)n2)oc2ccccc12 | 16.8%
CCN1CCN(Cc2ccc(NC(=O)c3ccc(C)c(NC(=O)c4nccn4C)c3)cc2C(F)(F)F)CC1 | 9.97%
O=C(Nc1nc(-c2ccccc2)ns1)c1cccs1 | 4.25%
CC(C)Cn1c(N2CCN(CC(=O)Nc3ccc(Cl)cc3)CC2)nc2ccccc21 | -30%
O=C(CCC(=O)n1ncc2ccccc21)NCc1ccccc1Cl | 17.8%
Cc1cccc(-n2cc(-c3ccc([N+](=O)[O-])cc3)[nH]c2=S)c1 | 12.7%
O=C(COC(=O)c1ccccc1SCC(=O)N1CCCC1)Nc1ccc(OC(F)F)cc1 | -7.26%

SMILES | hERG current change (%, negative = inhibition) at 1uM
COc1ccc(C(=O)CCc2nc3ccccc3s2)cc1 | 15%
O=c1[nH]c(C2CCN(S(=O)(=O)c3ccc(C(F)(F)F)cc3)CC2)nc2c1nnn2Cc1cccc(F)c1 | 15.6%
O=C(O)C(=O)O.O=S(=O)(c1ccc(F)cc1)N1CCN(CC2CC3C=CC2C3)CC1 (stereo not drawn) | 18%
C/C(=N/NS(=O)(=O)c1ccc(C(C)(C)C)cc1)c1ccc2c(c1)OCO2 | 17.5%
CCOc1ccc(N2C(=O)C3Sc4[nH]c(=O)sc4C(/C=C/c4ccccc4)C3C2=O)cc1 (stereo not drawn) | 7.15%
CCCCN(C(=O)CCCc1nc2ccccc2c(=O)[nH]1)c1c(N)n(CC(C)C)c(=O)[nH]c1=O | 5.91%
CCOC(=O)N1CCN(C(=O)c2noc(C(C)C)c2[N+](=O)[O-])CC1 | 3.93%
Cc1cccc(NS(=O)(=O)c2cc3c(cc2C)N(C)CCO3)c1 | 13.1%
Cc1c(-c2cccc(Cl)c2)nc2ccccc2c1C(=O)OC/C(O)=C(\C#N)c1nc2ccccc2[nH]1 | 2.62%
O=C(Nc1nccs1)C(Cl)(Cl)Cl | 15.2%
C=CCNC(=O)c1cn(CC)c2cc(N3CCN(C(=O)c4ccco4)CC3)c(F)cc2c1=O | -20.2%
O=C(O)CSCC(=O)N1CCN(c2cc(C(F)(F)F)nc3ccccc23)CC1 | 16.7%
COc1cc(/C=C2/SC(=S)N(Cc3ccccc3)C2=O)ccc1O | 5.53%
CCOC(=O)C1=C(CSc2nc(-c3ccccc3)ccc2C#N)OC(N)=C(C#N)C1c1ccc(OC)cc1 (stereo not drawn) | 11.7%
Cc1cccc(C)c1NC(=O)COC(=O)c1ccc2[nH]c3c(c2c1)CCCC3 | 1.86%
CCn1cc(C(=O)NCCCN2CCC(C)CC2)c(=O)c2cc(S(=O)(=O)N3CCCC3)ccc21 | 0.579%
Cc1ccc2oc(=O)n(CCOc3ccccc3C)c2c1 | 7.66%
COc1ccc2nc(NC(=S)N(C)C)sc2c1 | 19.9%
Cc1ccc(CN2CCN(Cc3ccccn3)CC2CCO)cc1 (stereo not drawn) | -5.1%
CCN1CCN(S(=O)(=O)c2ccc(Cl)c(C(=O)NC3CCCC3)c2)CC1 | 11.1%
O=C(CCCn1cnc([N+](=O)[O-])n1)Nc1cccc(O)c1 | 9.8%
O=C1/C(=C/c2ccco2)Cc2ccccc21 | 7.18%

SMILES | hERG current change (%, negative = inhibition) at 1uM
COc1ccc(Cl)cc1C(=O)NNC(=O)c1csc(N2CCOCC2)n1 | 15.5%
O=C(Nc1ccc2c(c1)OCCO2)C1CC1c1ccccc1 (stereo not drawn) | 12%
CS(=O)(=O)O.CSc1ccc2c(c1)C(N1CCN(C)CC1)Cc1ccccc1S2 (stereo not drawn) | -23.7%
CC(C)(C)c1cnnn1-c1ccc(-c2csc(N)n2)cc1 | 11%
CC(C)c1ccc(CN2CC(C(=O)Nc3ccccc3)CC2=O)cc1 (stereo not drawn) | 4.08%
CSCCC(NC(=O)C1CCC(C)CC1)C(=O)NCCN1CCC(C)CC1 (stereo not drawn) | 5.51%
COc1ccc(C(C)=O)cc1COC(=O)CSC(C)C(=O)Nc1cc(C)on1 (stereo not drawn) | 11%
CCCc1cc(C(=O)Nc2nnc(C)s2)cs1 | 3.35%
CCCCCCCCc1nnc(NC(=O)c2ccco2)s1 | 14.6%
COC(=O)C1=C(C)N(C)C(=S)NC1c1cc(OC)ccc1OC (stereo not drawn) | 2.93%
CCCN(CCC)C(=O)c1oc2ccccc2c1NC(=O)Cc1cccc(OC)c1 | 19.2%
COCCCNC(=O)c1c[nH]c2ccc(S(=O)(=O)N(C)c3ccccc3C)cc2c1=O | -3.74%
O=C(NCCc1nnc2ccc(NCc3ccc(Cl)cc3)nn12)c1ccccc1 | 2.58%
CCC(=O)NC(=S)Nc1ccc(NC(=O)COc2ccc([N+](=O)[O-])cc2)cc1 | 13.9%
O=C(N/C(=C\c1cccc(Br)c1)C(=O)N1CCOCC1)c1ccco1 | 6.44%
Cc1ccc2nc(-c3ccc(NC(=O)CSc4nccc(=O)[nH]4)cc3)sc2c1 | 10.6%
COc1ccc(-c2csc(N(CC3CCCO3)C(=O)c3cccs3)n2)cc1 (stereo not drawn) | -7.28%
Cc1ccc(C(O)c2ccc(-n3ccnc3)cc2)cc1 (stereo not drawn) | 12.2%
COc1cc(C(=O)NCCCc2ccccc2)cc(OC)c1OC | 4.88%
O=C(Nc1ccc(C(F)(F)F)cc1[N+](=O)[O-])O[C@H]1[C@H](Cc2ccccc2)NS(=O)(=O)[C@H]2C[C@@H]3C=C[C@]12O3 | 11.8%
COc1cccc(-c2nc(CS(=O)(=O)CC(=O)Nc3cc(C)ccc3C)c(C)o2)c1 | 7.07%
